From PMC11995724, “Antibiotic target discovery by integrated phenotypic and activity-based profiling of electrophilic fragments” (Cell chemical biology, 2025)
The campaign covered roughly 3,200 compounds. About 110 (3.4%) showed an effect of 50% or more. The list shows a part of the results.

Tested on: T1, V. cholerae SAD30
T1 construct: SAD30
Set-up: species or system S. aureus MSSA476 (TSB) or V. cholerae SAD30 (LB); 384-well bacterial growth screen at 25 uM, OD600 relative to DMSO control
Conditions: relative growth, OD600, LB; 25 µM; inhibitor

SMILES | % of control remaining [%]
C=CC(=O)NCc1cn(C2CCC2)nn1 [3-D09, N-[(1-cyclobutyl-1H-1,2,3-triazol-4-yl)methyl]prop-2-enamide] | 94.0305
C=CC(=O)Nc1ccc2c(c1)S(=O)(=O)CC2 [3-O15, N-(1,1-dioxo-2,3-dihydro-1lambda6-benzothiophen-6-yl)prop-2-enamide] | 104.97
Cc1ccoc1C=C(C#N)C(=O)NCCc1ccccc1 [9-N03, 2-cyano-3-(3-methylfuran-2-yl)-N-(2-phenylethyl)prop-2-enamide] | 85.588
C=CC(=O)NCCc1nnc(C)s1 [3-G22, N-[2-(5-methyl-1,3,4-thiadiazol-2-yl)ethyl]prop-2-enamide] | 109.204
C=CC(=O)NC1CN(C(C)=O)C1 [1-N22, N-(1-acetylazetidin-3-yl)prop-2-enamide] | 144.014
C=CC(=O)NCC(c1c(F)cccc1F)N1CC(C)OC(C)C1 (stereo not drawn) [1-I13, N-[2-(2,6-difluorophenyl)-2-(2,6-dimethylmorpholin-4-yl)ethyl]prop-2-enamide] | 82.5112
O=C(CCl)N1N=C(c2cccs2)CC1c1cccc(O)c1 (stereo not drawn) [6-L04, 2-chloro-1-[5-(3-hydroxyphenyl)-3-(thiophen-2-yl)-4,5-dihydro-1H-pyrazol-1-yl]ethan-1-one] | 102.076
CC(Cl)C(=O)N(C)CC(=O)Nc1ccccc1C(F)(F)F (stereo not drawn) [4-N05, 2-chloro-N-methyl-N-({[2-(trifluoromethyl)phenyl]carbamoyl}methyl)propanamide] | 110.761
CC(C)NC(=O)C(C#N)=Cc1ccc(Cl)cc1 [9-C09, 3-(4-chlorophenyl)-2-cyano-N-(propan-2-yl)prop-2-enamide] | 85.3161
O=C(CCl)NCC1CN(Cc2ccccc2)CCO1 (stereo not drawn) [4-H18, N-[(4-benzylmorpholin-2-yl)methyl]-2-chloroacetamide] | 103.343
C=CC(=O)N1CCC(C(=O)N2CCCCCC2c2ccco2)CC1 (stereo not drawn) [2-N20, 1-{4-[2-(furan-2-yl)azepane-1-carbonyl]piperidin-1-yl}prop-2-en-1-one] | 91.4311
Cc1nc(C)n(C2CCCN(C(=O)C(C)Cl)C2)n1 (stereo not drawn) [7-P13, 2-chloro-1-[3-(3,5-dimethyl-1H-1,2,4-triazol-1-yl)piperidin-1-yl]propan-1-one] | 82.3393
N#CC(=Cc1ccc(F)c(F)c1)C(=O)NC1CC1 [9-M06, 2-cyano-N-cyclopropyl-3-(3,4-difluorophenyl)prop-2-enamide] | 89.8029
C=CC(=O)Nc1cc(C(C)(C)C)nn1-c1ncccn1 [1-E04, N-[3-tert-butyl-1-(pyrimidin-2-yl)-1H-pyrazol-5-yl]prop-2-enamide] | 99.5516
Cn1c(N)c(C(=O)CCl)c(=O)n(C)c1=O [10-E14, 6-amino-5-(2-chloroacetyl)-1,3-dimethyl-1,2,3,4-tetrahydropyrimidine-2,4-dione] | 103.331
CCNC(=O)C(C#N)=Cc1c(N2CCOCC2)nc2ccccn2c1=O [9-O06, 2-cyano-N-ethyl-3-[2-(morpholin-4-yl)-4-oxo-4H-pyrido[1,2-a]pyrimidin-3-yl]prop-2-enamide] | 97.0088
CC(Cl)C(=O)NC(=O)NC12CC3CC(CC(C3)C1)C2 (stereo not drawn) [6-D10, 1-(adamantan-1-yl)-3-(2-chloropropanoyl)urea] | 77.8083
CCC1SC(=C(C#N)C(=O)NC)N(c2ccc(Cl)cc2)C1=O (stereo not drawn) [8-L15, 2-[3-(4-chlorophenyl)-5-ethyl-4-oxo-1,3-thiazolidin-2-ylidene]-2-cyano-N-methylacetamide] | 72.9436
CC(Cl)C(=O)NC(=O)NCc1cccs1 (stereo not drawn) [6-E05, 3-(2-chloropropanoyl)-1-[(thiophen-2-yl)methyl]urea] | 91.6106
CC(Cl)C(=O)NC1(c2noc(C(F)F)n2)CCC1 (stereo not drawn) [6-B15, 2-chloro-N-{1-[5-(difluoromethyl)-1,2,4-oxadiazol-3-yl]cyclobutyl}propanamide] | 95.0991
O=C(CCl)NC(c1cc(F)ccc1F)C(F)F (stereo not drawn) [7-F22, 2-chloro-N-[1-(2,5-difluorophenyl)-2,2-difluoroethyl]acetamide] | 92.5161
O=C(CCl)NCC1CCN(C(=O)Cc2ccccc2)C1 (stereo not drawn) [7-B08, 2-chloro-N-{[1-(2-phenylacetyl)pyrrolidin-3-yl]methyl}acetamide] | 86.3043
C=CC(=O)N1CC(C)OC2(CCOCC2)C1 (stereo not drawn) [3-I12, 1-{2-methyl-1,9-dioxa-4-azaspiro[5.5]undecan-4-yl}prop-2-en-1-one] | 81.8563

SMILES | % of control remaining [%]
Cc1ccccc1CC(C)NC(=O)CCl (stereo not drawn) [6-C06, 2-chloro-N-[1-(2-methylphenyl)propan-2-yl]acetamide] | 89.7905
C=CC(=O)NC(C)c1nnnn1C (stereo not drawn) [3-A15, N-[1-(1-methyl-1H-1,2,3,4-tetrazol-5-yl)ethyl]prop-2-enamide] | 113.615
C=CC(=O)N1CCC(Cn2cnnc2)CC1 [3-P09, 1-{4-[(4H-1,2,4-triazol-4-yl)methyl]piperidin-1-yl}prop-2-en-1-one] | 109.557
O=C(CCl)NCc1cc([N+](=O)[O-])ccc1O [4-A05, 2-chloro-N-[(2-hydroxy-5-nitrophenyl)methyl]acetamide] | 105.586
CC(Cl)C(=O)N[C@H](CC(N)=O)c1cccc(Cl)c1 (stereo partly drawn) [7-O09, (3R)-3-(3-chlorophenyl)-3-(2-chloropropanamido)propanamide] | 79.5639
C=CCNC(=O)C(C#N)=Cc1c(C)nn(-c2ccc(F)cc2)c1Cl [9-L07, 3-[5-chloro-1-(4-fluorophenyl)-3-methyl-1H-pyrazol-4-yl]-2-cyano-N-(prop-2-en-1-yl)prop-2-enamide] | 88.4432
Cc1cc(-n2c(C)cc(C=C(C#N)C(=O)NC3CCCC3)c2C)no1 [9-J15, 2-cyano-N-cyclopentyl-3-[2,5-dimethyl-1-(5-methyl-1,2-oxazol-3-yl)-1H-pyrrol-3-yl]prop-2-enamide] | 77.0224
C=CC(=O)N1CCC(C(=O)Nc2[nH]nc(C(F)(F)F)c2C)CC1 [1-O04, N-[4-methyl-3-(trifluoromethyl)-1H-pyrazol-5-yl]-1-(prop-2-enoyl)piperidine-4-carboxamide] | 93.423
CC(Cl)C(=O)N(C(C)CS(C)(=O)=O)C1CC1 (stereo not drawn) [6-L17, 2-chloro-N-cyclopropyl-N-(1-methanesulfonylpropan-2-yl)propanamide] | 86.757
CCC(C)n1nccc1NC(=O)C(C)Cl (stereo not drawn) [6-A20, N-[1-(butan-2-yl)-1H-pyrazol-5-yl]-2-chloropropanamide] | 95.4024
O=C(CCl)NCC(=O)Nc1ccc(F)c(F)c1F [4-D18, 2-chloro-N-{[(2,3,4-trifluorophenyl)carbamoyl]methyl}acetamide] | 103.515
O=C(CCl)c1c(-c2ccc(F)cc2)[nH]c2ccccc12 [10-P04, 2-chloro-1-[2-(4-fluorophenyl)-1H-indol-3-yl]ethan-1-one] | 95.8504
N#CC(=Cc1ccc(N2CCOCC2)cc1)C(=O)Nc1ccccc1F [9-B03, 2-cyano-N-(2-fluorophenyl)-3-[4-(morpholin-4-yl)phenyl]prop-2-enamide] | 97.5527
CCOc1cc(C=C(C#N)C(=O)Nc2cccc(C)c2)ccc1O [9-G06, 2-cyano-3-(3-ethoxy-4-hydroxyphenyl)-N-(3-methylphenyl)prop-2-enamide] | 85.0442
O=C(CCl)Nc1ccccc1OC(F)F [4-N09, 2-chloro-N-[2-(difluoromethoxy)phenyl]acetamide] | 109.554
CC(Cl)C(=O)N1CCCC(CC(=O)OC(C)(C)C)CC1 (stereo not drawn) [6-P18, tert-butyl 2-[1-(2-chloropropanoyl)azepan-4-yl]acetate] | 90.8522
C=CC(=O)NCC1CCOC1 (stereo not drawn) [1-H08, N-[(oxolan-3-yl)methyl]prop-2-enamide] | 115.064
N#CC(C(=O)CCl)=C1Nc2ccccc2S1 [10-J04, 4-chloro-2-(2,3-dihydro-1,3-benzothiazol-2-ylidene)-3-oxobutanenitrile] | 96.0062
CCOC(=O)c1c(C)[nH]c(C(=O)CCl)c1C [10-J20, ethyl 5-(2-chloroacetyl)-2,4-dimethyl-1H-pyrrole-3-carboxylate] | 103.799
Cc1ccc(NC(=O)N2CCN(C(=O)C=CCN(C)C)CC2)cc1 [10-H16, 4-[4-(dimethylamino)but-2-enoyl]-N-(4-methylphenyl)piperazine-1-carboxamide] | 98.8116
C=CC(=O)NCCC(=O)N1CCN(c2nc(C)cs2)CC1 [3-F07, N-{3-[4-(4-methyl-1,3-thiazol-2-yl)piperazin-1-yl]-3-oxopropyl}prop-2-enamide] | 95.0891
O=C(CCl)Nc1ccc(N=Nc2ccccc2)cc1 [4-C11, 2-chloro-N-[4-(2-phenyldiazen-1-yl)phenyl]acetamide] | 92.9912
